The other results are listed elsewhere or left out.
T1: UNK ZnF1-3 (human, UniProt Q9C0B0 31-174)
T1 sequence: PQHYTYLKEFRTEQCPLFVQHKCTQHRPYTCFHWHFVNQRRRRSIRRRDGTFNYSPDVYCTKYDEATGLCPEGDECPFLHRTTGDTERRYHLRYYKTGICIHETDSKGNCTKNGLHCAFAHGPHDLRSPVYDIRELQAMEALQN

B1: chr17:57743871:57743872:+_ENSG00000141367_ENST00000269122|hu_hu|FALSE|FALSE (ssRNA)
RNA: GGGAGUUCUACAGUCCGACGAUCCAGUAGGCCAGCCUUUUCACACAGUUGAGCAAUAUGAGCCCGGUCAUAAUGUGUGAACAUCUGAUUGCCUAGAAUAGCAUCUGCAACUUGAGGCGCAUGCAUAAGGUUCAUCUCAAGUAACAACAGAGGAUUGAGCAUCA
B2: 90616086_90621556_925_3pUTR_ENSMUSG00000019961_ENSMUST00000072239|mouse|control|control (ssRNA)
RNA: GGGAGUUCUACAGUCCGACGAUCCCUGUUGAAGAUCCACUCGUCCAUUCAGUCUCAGUUACUCCAGCUUGAGAAUAGCUCUGAUUGUGCUCAGUCCUUCUCUGCUUCAGUGUGACUGGCGUCUUGGCUCUGCCCUUUAGCGGCCAACAGAGGAUUGAGCAUCA
B3: chr5:132412388:132412389:+_ENSG00000170606_ENST00000304858|hu_mus|FALSE|FALSE (ssRNA)
RNA: GGGAGUUCUACAGUCCGACGAUCUUUAGAUUUUAUGUCUAGCUUGUAUUUCUUUCCAAAUUCUUCACAGAAGUGAUUUACCAACACCUCAUCAAAUUUUCUGCCUCCCAAUGUUGUAUCAAAAGCUGUGGCCAAAACUUUCAGCAACAGAGGAUUGAGCAUCA
B4: chr3:10015032:10015033:+_ENSMUSG00000027533_ENSMUST00000029046|mus_mus|mus_mus_mus_hu_True|18_68 (ssRNA)
RNA: GGGAGUUCUACAGUCCGACGAUCGUUUUUACCAUCACAAGUGAUGAUACAAUCUGGCUUGGCCAUUGCAGCCAUCUUUCGCAAAGCUAUUCCCACUCCUAGCUCCUUCAUGUAUUCCUCAAAGCCGUUGCUGUCCACCAGGCGCAACAGAGGAUUGAGCAUCA
B5: chr1:78482781:78482782:+_ENSG00000162616_ENST00000370763|hu_hu|FALSE|FALSE (ssRNA)
RNA: GGGAGUUCUACAGUCCGACGAUCUGUAGUGGUAGUUCAUUCUUUUUAGGGAAAUUACAUAAAGUACAUAUAGAAUAUUAUUAGUAAGUUAUAGAAGACUGUAUAACUGGAAAAUUAAUUCCAAGUAACAGCAUUUCCUCUAAACAACAGAGGAUUGAGCAUCA
B6: chr8:109707966:109707967:+_ENSMUSG00000031924_ENSMUST00000034400|mus_mus|motif|central (ssRNA)
RNA: GGGAGUUCUACAGUCCGACGAUCAAUUUACUUAAAAAGAAAAAUGGGAAAAGAUUCAUAACCUGACUGCUGUUCCCUUAACGGUAUCUACUAUGAAUUCAAAUUAUGAGAAAUCAUGUACUGUCCCCAAAGGCCAUGUCACUACAACAGAGGAUUGAGCAUCA
B7: chr5:136384420:136384421:-_ENSMUSG00000051391_ENSMUST00000055808|mus_mus|motif|central (ssRNA)
RNA: GGGAGUUCUACAGUCCGACGAUCUACGACGGCUACAUAAUGACUCACAUUCAUGAAUAUUCCAUCACUGAGGAAACUGCGGAGAAUGGUCCGUGUGCGAAAUAAUUCCUUAGCGAAACACGGAGUUGGGGGGGAAAAAAUCACCAACAGAGGAUUGAGCAUCA
B8: 79703920_79729941_136_5pUTR_ENSG00000039319_ENST00000505560|human|control|control (ssRNA)
RNA: GGGAGUUCUACAGUCCGACGAUCUAAUUCUUGUAUGCCUCUGGUCUGGAACAGAAACUCCACCAAAUAAGCCCGAGAAACCUCACAGGAAUCUCCCUACAGCCCCUGCGGAGCUUUUUGGGAACUCGACACGACGUCGCGCUGCAACAGAGGAUUGAGCAUCA
B9: chr1:60041781:60041782:+_ENSMUSG00000041040_ENSMUST00000036540|mus_hu|mus_mus_mus_hu_False|18_68 (ssRNA)
RNA: GGGAGUUCUACAGUCCGACGAUCAAGUUUACAAUAGUAAAGUAAAUGCAGUAGUGGCAAAUUUUCUUUACUUUAGUUUCACAAAAGAAAAUCUUUAUAACCCAGUCCUAGUCUUGGCAGAGAAAGCAGCUAUAAAUUCUGACUCAACAGAGGAUUGAGCAUCA
B10: chr15:66169770:66169771:+_ENSG00000103769_ENST00000567671|perfect_dup|FALSE|FALSE (ssRNA)
RNA: GGGAGUUCUACAGUCCGACGAUCGUCCCAUAUCUGUGCCUUUAUUGUUUUCCCAUCAACCUGGAUGCUUCUUGUUGCAAACUCUACUCCAAUGGUACUCUUGCUUUCCAGAUUAAACUCAUUUCGAGUAAAUCGAGACAGGAGCAACAGAGGAUUGAGCAUCA
B11: chr12:12974248:12974249:+_ENSG00000213782_ENST00000358007|hu_hu|FALSE|FALSE (ssRNA)
RNA: GGGAGUUCUACAGUCCGACGAUCCAGGGCUUCAAACUGCUCUGAGAUCUGAAAGGCCAGCUCCCGAGUCGGGGUAAGAACUAGGGCAAACAAACGCUGCGGGGUCUCCAGCAGUGCGUUUAGAAUGGGCAAAGCAAAGGCGCCCAACAGAGGAUUGAGCAUCA
B12: chr8:81716360:81716361:+_ENSMUSG00000071064_ENSMUST00000098614|mus_mus|FALSE|FALSE (ssRNA)
RNA: GGGAGUUCUACAGUCCGACGAUCCUAAGCAGGCCCCUCAUCCACGGCUGGAUGUCAGGUGGGGAGGGAAGCAGGGCCCUGCUAGGUUUGGAGAGGGAGGCUGCGAAGGUAUAAGGAGCUGAUGAUGUGGACUGUUCAGUCUCUCAACAGAGGAUUGAGCAUCA
B13: chr6:114281168:114281169:-_ENSG00000196591_ENST00000368632|hu_hu|hu_hu_hu_mus_True|78_88 (ssRNA)
RNA: GGGAGUUCUACAGUCCGACGAUCUUCCAUUUUUCGGUAUAAACCAUAAUUUAACAGCAAGUUAUGGGUCAUCCGGAUUCUAUGAGGCUUCAUGGGAUGACCCUGGCCAUAAUAAUAAUUGCCAAUAUCACCAUCAUAGUAGUACAACAGAGGAUUGAGCAUCA
B14: chr7:149068622:149068623:-_ENSMUSG00000025139_ENSMUST00000001950|mus_hu|mus_mus_mus_hu_False|8_98 (ssRNA)
RNA: GGGAGUUCUACAGUCCGACGAUCGUGAGGCCUCUGAGUGAGGUUCCUGGUCUGUCCUGGGUUAGAGUUGUUAAUAUCACGGAACAUACCAUCUAGAACGUUCCAGUCCCGCCUGACACCUUCAUUCGCAAGAGGGCAGAAAUCCAACAGAGGAUUGAGCAUCA
B15: chr3:197553776:197553777:+_ENSG00000186001_ENST00000438796|hu_hu|FALSE|FALSE (ssRNA)
RNA: GGGAGUUCUACAGUCCGACGAUCGCAUGAGAAGUCUAACCGUAUCAAAGGCAACUCCGCCAGCUCUUCAGGCAAAUGUACUAGGUGAUUUCUUCUUACAUUAAGGUCUCUCAAGGCCUCCAGGUUACCAAUUUGGGAAGGUAUCAACAGAGGAUUGAGCAUCA
B16: chr6:57672499:57672500:+_ENSMUSG00000062190_ENSMUST00000050077|mus_hu|FALSE|FALSE (ssRNA)
RNA: GGGAGUUCUACAGUCCGACGAUCUCGGAGCAGGUAGGUUUGGUCACAUGUGACCCGGUACAACUGCAGGUACAAAAGGGCUAUGCCUGUCCAGCCAGUAUAAGCAGAGCAGUCAUGGGGAUCAGCUGUCUUCAGCCCUUCUUCCAACAGAGGAUUGAGCAUCA
B17: chr8:95500983:95500984:-_ENSG00000164944_ENST00000437199|hu_hu|motif|central (ssRNA)
RNA: GGGAGUUCUACAGUCCGACGAUCAAAAGGAUUUUUAUCGUGUAAAGGAGCGUACAUGACGACCUCUACCACUGCCUCCACGGACAAACUUUCCUCUUGAGCCUCCACUGCCGCUAUUUGCACUAGCCCAGGAAGGUCCAAGUCCAACAGAGGAUUGAGCAUCA
B18: chr1:60041781:60041782:+_ENSMUSG00000041040_ENSMUST00000036540|mus_hu|mus_mus_mus_hu_False|38_68 (ssRNA)
RNA: GGGAGUUCUACAGUCCGACGAUCAAGUUUACAAUAGUAAAGUAAAUGCAGUAGUGGCAAAUUUUCUUUACUUUAGUUUCACAAAAGAAAAUCUUUAGAUCUCAGUUCUAGUCUUGGACAUAGUGAAAGCUAUAAAUUCUGACUCAACAGAGGAUUGAGCAUCA
B19: 20712000_20712939_4853_CDS_ENSMUSG00000004099_ENSMUST00000004202|mouse|control|control (ssRNA)
RNA: GGGAGUUCUACAGUCCGACGAUCUGCAGCUGAUGCGCUCUCCCGAGCACUGGACAGCAGGCAGAGCUUAAUCUCCAGGCCAAUGGCUUUGGCCAGGGGUGGUGGCACAGCAUUACCCACCUGCCGGUGUCUGUCCAGGAUGUUCAACAGAGGAUUGAGCAUCA
B20: 193056109_193056229_3668_3pUTR_ENSG00000116747_ENST00000432079|human|control|control (ssRNA)
RNA: GGGAGUUCUACAGUCCGACGAUCAUUUCCUAAUAACUCAAUAAGGUAAAAGUCUUAAAUAAUUUUAUUUUAUCCUCUACUCUUCUGAGACCAUGUAUUCCCAUGUUGUGGGGAAAUAAAUUCUGGCACAGGAAUGAAGAGACCCAACAGAGGAUUGAGCAUCA
B21: chr9:59240146:59240147:-_ENSMUSG00000025234_ENSMUST00000171975|mus_hu|FALSE|FALSE (ssRNA)
RNA: GGGAGUUCUACAGUCCGACGAUCGGGGGAUUAGGUUGGGACAGGUUAAUUCAUGAGCUGUAGCAACAAAACUCCCUGCUGUACCCCUUAAUCAGGUCAUGGCAUUAGUCAGAGCUUGACCUCCCUUGUCCCUGAUCAAGAGCACAACAGAGGAUUGAGCAUCA
B22: chr15:100049815:100049816:+_ENSMUSG00000023026_ENSMUST00000100203|mus_mus|FALSE|FALSE (ssRNA)
RNA: GGGAGUUCUACAGUCCGACGAUCAAUGAGUUAAUAGAACACUGUCCAGCCAGAUGUUAAAUUUAAAAAUGUAUAUCUAACCUAAUUUCAAAUAAAUAAAAAAACCUUUAUACAUAAUUACACAGUACUAUAGUUUGAAUUGGACAACAGAGGAUUGAGCAUCA

Each binder was assayed against T1, UNK ZnF1-3 (assay: nsRBNS (natural sequence RNA bind-n-seq); RBNS binding buffer (assumed for nsRBNS): 25 mM Tris pH 7.5, 150 mM KCl, 3 mM MgCl2, 0.01% Triton X-100, 500 ug/ml BSA, 20 U/ml SUPERase-In, 4 C; UNK is unkempt and MSI1 is Musashi-1; names of the RNAs are library labels; protein concentration not given here; high values mean tight binding).

| Binder | binding signal [enrichment R] |
| --- | --- |
| B1 | 1.14 |
| B2 | 0.574 |
| B3 | 0.905 |
| B4 | 0.775 |
| B5 | 0.864 |
| B6 | 1.77 |
| B7 | 1.31 |
| B8 | 1.23 |
| B9 | 0.869 |
| B10 | 0.655 |
| B11 | 1.68 |
| B12 | 1.49 |
| B13 | 0.658 |
| B14 | 0.851 |
| B15 | 0.733 |
| B16 | 0.866 |
| B17 | 0.563 |
| B18 | 0.473 |
| B19 | 0.683 |
| B20 | 0.936 |
| B21 | 0.931 |
| B22 | 2.06 |

From article PMC12136788
